Hit rate of the full screen: of about 350,000 compounds, about 31,000 (8.9%) were called active. The inconclusive results got no clear call from the source; some entries with a clear call stand among them for comparison. Calls come from the whole dose curve; as a rule, active = well fitted inhibition curve with a large enough effect; inconclusive = small, poorly fitted or top-dose-only effect; inactive = no such curve, though single readings can be large or run the other way. Potencies of inconclusive entries are doubtful fits and often do not repeat.
molecular target: Histone-lysine N-methyltransferase EHMT2 (Homo sapiens) (UniProt Q96KQ7); experiment: qHTS Assay for Inhibitors of Histone Lysine Methyltransferase G9a; conditions: G9a H3K9 monomethylation, AlphaScreen, 2 h; activity, negative = inhibition: at 59 µM (top of the series) unless noted; note: nearly all actives have a fitted effect of over 75% in size
Method in brief: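 Methyltransferase reactions run at room temperature for 2 h (20 nM enzyme, 500 nM biotin-H3K9 peptide, 20 uM SAM) after a 15 min compound preincubation; product detected by AlphaScreen beads and anti-H3K9me1 antibody.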
% is set by controls: 0 for no effect and ±100 for the full control effect; potency is the fitted concentration of half-maximal effect; tags give direction and shape of the fitted curve.

Sequence of UniProt Q96KQ7 (Q96KQ7 whole entry, looked up): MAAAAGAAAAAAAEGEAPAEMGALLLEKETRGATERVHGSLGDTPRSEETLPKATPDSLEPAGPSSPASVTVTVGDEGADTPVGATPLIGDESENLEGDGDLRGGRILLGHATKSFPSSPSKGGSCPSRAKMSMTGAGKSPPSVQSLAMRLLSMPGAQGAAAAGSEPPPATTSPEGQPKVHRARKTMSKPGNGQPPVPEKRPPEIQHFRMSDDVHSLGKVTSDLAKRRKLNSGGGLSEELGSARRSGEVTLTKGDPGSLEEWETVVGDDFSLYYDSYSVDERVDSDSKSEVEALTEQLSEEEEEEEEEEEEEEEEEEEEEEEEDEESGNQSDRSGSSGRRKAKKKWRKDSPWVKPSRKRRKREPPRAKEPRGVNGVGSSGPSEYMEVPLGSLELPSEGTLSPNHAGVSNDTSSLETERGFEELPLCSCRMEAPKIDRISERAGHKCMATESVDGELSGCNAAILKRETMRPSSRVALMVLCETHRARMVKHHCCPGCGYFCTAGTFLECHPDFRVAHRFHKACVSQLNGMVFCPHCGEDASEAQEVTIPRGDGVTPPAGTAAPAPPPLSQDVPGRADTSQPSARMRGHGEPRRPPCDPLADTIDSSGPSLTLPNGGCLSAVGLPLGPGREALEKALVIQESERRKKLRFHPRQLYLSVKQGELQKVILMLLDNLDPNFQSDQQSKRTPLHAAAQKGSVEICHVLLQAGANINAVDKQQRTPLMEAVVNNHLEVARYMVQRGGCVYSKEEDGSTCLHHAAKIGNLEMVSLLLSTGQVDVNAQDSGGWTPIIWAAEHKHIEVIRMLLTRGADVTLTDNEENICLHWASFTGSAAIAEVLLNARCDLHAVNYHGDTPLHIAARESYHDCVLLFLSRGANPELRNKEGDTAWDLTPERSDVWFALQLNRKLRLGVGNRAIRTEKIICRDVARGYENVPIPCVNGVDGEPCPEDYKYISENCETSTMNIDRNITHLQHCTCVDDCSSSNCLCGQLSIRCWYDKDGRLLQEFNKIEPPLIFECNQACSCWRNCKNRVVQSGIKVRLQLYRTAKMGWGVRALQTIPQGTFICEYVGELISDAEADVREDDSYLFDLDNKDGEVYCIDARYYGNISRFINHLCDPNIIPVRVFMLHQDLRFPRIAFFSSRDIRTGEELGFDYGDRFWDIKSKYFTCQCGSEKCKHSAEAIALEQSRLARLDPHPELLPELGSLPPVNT

| SMILES | activity, negative = inhibition | Potency |
| --- | --- | --- |
| COc1ccc([C@]23Cc4ccccc4C(O2)c2c(cc(C)n(Cc4ccccc4)c2=O)O3)cc1 | inactive: 8.69% [at 2.33 µM] | – |
| CCCOc1ccc(N2C(=O)CC(N(Cc3ccc(S(N)(=O)=O)cc3)C(=O)CC)C2=O)cc1 (configuration not stated) | inconclusive: -60.9% [inhibitor] | – |
| C#CCNC(=O)C1=C[C@H](C(C)(C)C)C[C@H](OCc2ccc(CO)cc2)O1 | inconclusive: -69.2% [inhibitor] | – |
| CCOC(=O)C1(CCOc2ccccc2)CCN(CC(O)CO)CC1 (configuration not stated) | – | inactive |
| COC(=O)c1cnc2c(c(C)nn2C)c1OC | – | inactive |
| COc1cc(OC)c(OC)cc1CNCCNC(=O)c1ccco1 | – | active: 10 µM |
| CC1CCC/C(=C\Nc2ccc(C(=O)O)cc2)C1=O (configuration not stated) | – | inconclusive: 44.7 µM [inhibitor, partial curve, poor fit] |
| COc1ccc([C@]23Cc4cc(C#N)ccc4C(O2)c2c(c4ccc(OC)cc4oc2=O)O3)cc1 | – | inconclusive: 1.41 µM [inhibitor, single point] |
| O=C(COc1cccnc1[N+](=O)[O-])N1CCN(C(=O)c2ccco2)CC1 | – | active: 8.91 µM |
| N=C1/C(=C\c2ccc(-c3cccc(Cl)c3)o2)C(=O)N=C2SC=C(c3ccccc3)N12 | – | active: 44.7 µM |
| CCn1ncc(NC(=S)Nc2ccc3c(c2)OCO3)c1C(N)=O | – | active: 20 µM |
| CCc1nnc(NC(=O)Cc2ccc(Br)cc2)s1 | inconclusive: -59.8% [inhibitor] [at 102 µM] | – |
| Cc1cnc(N2C(=O)c3ccc([N+](=O)[O-])cc3C2=O)s1 | – | active: 56.2 µM |
| COc1ccc(/C=N/NC(=O)CNc2c(Br)cc(C)cc2Br)c(C(=O)O)c1OC | – | inconclusive: 89.1 µM [inhibitor, single point] |
| Cc1ccc(NC(=O)C(Cc2ccccc2)NS(=O)(=O)c2ccc3c(c2)oc(=O)n3C)cc1F (configuration not stated) | – | inactive |
| COc1ccccc1N=Nc1c(C)[nH][nH]c1=O | – | active: 35.5 µM |
| O=C(Nc1nc2n(n1)C(c1ccc(F)cc1)C=C(c1ccccc1)N2)c1ccc(Cl)cc1 (configuration not stated) | – | inconclusive: 39.8 µM [inhibitor, partial curve, poor fit] |
| CSc1nnc(C)c(=O)n1COC(=O)/C=C/c1ccc2c(c1)OCO2 | – | inactive |
| CC(NCC(O)COc1ccccc1)C1COc2ccccc2O1 (configuration not stated) | – | inactive |
| Cc1nc(SCC(=O)O)c(C#N)c(C)c1CC(=O)c1ccccc1 | – | inconclusive: 10 µM [inhibitor, full curve, poor fit] |
| Cn1c(=O)oc2cc(S(=O)(=O)N3CCN(c4ccc(F)cc4)CC3)ccc21 | – | inconclusive: 15.8 µM [inhibitor, partial curve, poor fit] |
| COc1ccc(C)cc1-n1nnnc1SCc1nc2ccccc2c(=O)[nH]1 | – | inactive |
| Cc1cc(NC(=O)CSc2ccc3ccccc3c2)no1 | – | inconclusive: 39.8 µM [inhibitor, single point] |
| COc1cccc(-n2cnnc2SC(C)C(=O)NC2CCCC2)c1 (configuration not stated) | – | inconclusive: 1 µM [inhibitor, single point] |

| SMILES | activity, negative = inhibition | Potency |
| --- | --- | --- |
| Cc1cccc(NC(=O)CN2CCN(C(=O)C3CCCO3)CC2)c1C (configuration not stated) | inactive: -6.14% [at 12.7 µM] | – |
| Cc1cc(C)cc(NC(=O)C(=O)NCC(c2cccnc2)N2CCc3ccccc3C2)c1 (configuration not stated) | – | inactive |
| Oc1ccc(-c2nc3ncccn3c2Nc2ccc3c(c2)OCO3)cc1 | – | inconclusive: 3.16 µM [inhibitor, single point] |
| CCOC(=O)CSc1nsc(SCC(=O)OCC)c1C#N | – | inactive |
| Cc1cnc(C(=O)OCC(=O)N(C)CC(=O)Nc2ccccc2Cl)cn1 | – | inconclusive: 50.1 µM [inhibitor, partial curve] |
| COC(=O)c1c(NC(=O)c2ccoc2C)sc(C)c1C | – | inconclusive: 0.631 µM [inhibitor, partial curve, poor fit] |
| O=C(NCc1ccco1)C12CN(Cc3ccccc3)CC1C(c1cccc([N+](=O)[O-])c1)=NO2 (configuration not stated) | – | active: 44.7 µM |
| Cc1cccc(Nc2nc(CC(=O)O)cs2)c1 | – | inconclusive: 79.4 µM [inhibitor, single point] |
| S=C(NCCc1c[nH]c2ccccc12)NC1CCCC1 | – | inactive |
| CCC(C)[C@H](NC(=O)OC(C)(C)C)C(=O)N/N=C/c1cccc2nccnc12 (some centres not stated) | – | inconclusive: 1.12 µM [inhibitor, partial curve, poor fit] |
| COc1cccc(NC(=O)CSCc2cc(=O)n3ccsc3n2)c1 | – | inactive |
| CC(C)OC(=O)CN1C(=O)c2ccccc2C1=O | inactive: -1.86% [at 12.7 µM] | – |
| CCOC(=O)c1c(NC(=O)c2cc(-c3ccc(O)cc3)on2)sc(C(C)=O)c1C | – | active: 22.4 µM |
| Cc1sc2ncnc(N3CCC(C(=O)Nc4ccccc4C(C)(C)C)CC3)c2c1C | – | inconclusive: 79.4 µM [inhibitor, single point] |
| COCCCNC(=S)N1CCN(c2ccccc2)CC1 | – | inconclusive: 89.1 µM [inhibitor, partial curve, poor fit] |
| O=C(C1CCCCC1)N(Cc1nc2sc3c(c2c(=O)[nH]1)CCCC3)Cc1cccs1 | – | inconclusive: 39.8 µM [inhibitor, partial curve, poor fit] |
| CCOc1ccc(NCc2cc3c(C(C)(C)C)nn(-c4ccccc4)c3[nH]c2=O)cc1 | – | active: 39.8 µM |
| O=C1c2ccccc2N2C(=O)c3ccccc3C2N1O (configuration not stated) | – | inconclusive: 79.4 µM [inhibitor, single point] |
| Oc1cccc2cnccc12 | inconclusive: -70.7% [inhibitor] | – |
| CC(Oc1ccc(Cl)cc1Cl)C(=O)Nc1ccc(N2CCN(C)CC2)cc1 (configuration not stated) | – | inconclusive: 31.6 µM [inhibitor, single point] |
| O=[N+]([O-])c1ccc(Cl)c(/C=N/n2c(C3CCCCC3)n[nH]c2=S)c1 | – | inconclusive: 10 µM [inhibitor, partial curve, poor fit] |
| Cc1ccc2nc(-c3ccc(SCC(=O)Nc4nnc(C)s4)nc3)[nH]c2c1 | – | inconclusive: 1.12 µM [inhibitor, full curve] |
| CC1(C)CC(=O)C(C(C2=C(O)CC(C)(C)CC2=O)c2ccc(Cl)c([N+](=O)[O-])c2)C(=O)C1 (configuration not stated) | – | inconclusive: 50.1 µM [inhibitor, partial curve] |
| Nc1ccc(N2CCN(c3ncc(C(F)(F)F)cc3Cl)CC2)c(C(F)(F)F)c1 | – | inconclusive: 22.4 µM [inhibitor, partial curve, poor fit] |

| SMILES | activity, negative = inhibition | Potency |
| --- | --- | --- |
| COc1ccccc1Nc1nnc(SCc2nnc(-c3cc(OC)c(OC)c(OC)c3)o2)s1 | – | active: 14.1 µM |
| Cc1[nH]n(-c2ccccc2)c(=O)c1C(c1ccccc1C(=O)O)c1c(C)[nH]n(-c2ccccc2)c1=O | – | inconclusive: 39.8 µM [inhibitor, single point] |
| Cc1oc(C)c2c(=O)cc(-c3ccc4c(c3)OCO4)cc(OC(=O)c3cccc(Br)c3)c12 | – | inconclusive: 35.5 µM [inhibitor, partial curve, poor fit] |
| COc1cccc(S(=O)(=O)NCc2ccc(C(=O)N3CCN(c4ccccc4)CC3)cc2)c1 | – | active: 63.1 µM |
| CCOC(=O)CN1C(=O)C2(OCCCO2)c2cc(Br)ccc21 | – | inactive |
| Cc1nn(-c2ccccc2)c(=S)n1-c1ccccc1 | inactive: -28.7% [at 12.7 µM] | – |
| O=C(/C=C/c1ccccc1Cl)Nc1cccnc1 | – | inactive |
| CC1CC(C)CN(CC(=O)c2c[nH]c3ccccc23)C1 (configuration not stated) | – | inconclusive: 79.4 µM [inhibitor, single point] |
| COc1ccccc1NS(=O)(=O)c1cc(NC(=O)C(C)(C)C)ccc1N1CCOCC1 | inactive: 6.98% [at 0.501 µM] | – |
| COc1cc(Cl)ccc1S(=O)(=O)n1nc(C)cc1C | – | inconclusive: 0.1 µM [inhibitor, full curve, poor fit] |
| CC1=NN(C(N)=S)C(=O)C1N=Nc1cc(Cl)ccc1Cl (configuration not stated) | – | inconclusive: 10 µM [inhibitor, single point] |
| O=C(O)c1cc2ncc(CCO)cn2n1 | – | inconclusive: 89.1 µM [inhibitor, single point] |
| N#Cc1c(-c2cccnc2)c2c([nH]c1=O)-c1ccccc1OC2 | – | inconclusive: 89.1 µM [inhibitor, single point] |
| CCNC(=O)Cn1cc(C(F)(F)F)cc(Cl)c1=O | – | inactive |
| CCn1cc(NC(=O)Nc2ccc(OC)c(OC)c2)c(C(N)=O)n1 | – | active: 25.1 µM |
| CC(=O)Nc1ccc2nc3c(=O)[nH]c(=O)[nH]c3nc2c1 | – | inconclusive: 31.6 µM [inhibitor, single point] |
| Cc1ccc(-c2ccc(S(=O)(=O)N3CCCC3)cc2)cc1 | – | inconclusive: 89.1 µM [inhibitor, partial curve, poor fit] |
| O=[N+]([O-])c1ccc(C2CN=C(Nc3ccccc3)S2)cc1 (configuration not stated) | – | active: 44.7 µM |
| Cc1noc(-c2ccc(N3CCCCC3)c([N+](=O)[O-])c2)n1 | – | inconclusive: 39.8 µM [inhibitor, partial curve, poor fit] |
| COCc1cc(C(C)=O)ccc1OC | inactive: -11.9% [at 12.7 µM] | – |
| O=C(CCc1nnc2ccc(NCc3ccco3)nn12)N1CCN(c2ccccc2)CC1 | – | inactive |
| COc1ccccc1C(=O)Nc1ccc(N2CCN(S(C)(=O)=O)CC2)cc1 | – | inconclusive: 10 µM [inhibitor, partial curve, poor fit] |
| Cc1ccc(CNC(=O)c2coc(=O)c3ccccc23)o1 | – | inconclusive: 8.91 µM [inhibitor, single point] |
| NC(=O)CSc1nnc(Cn2c(=O)sc3ccccc32)n1CCc1ccccc1 | – | inconclusive: 39.8 µM [inhibitor, single point] |
